# Assay results published in PubChem BioAssay AID588855 (National Center for Advancing Translational Sciences (NCATS), 2011).
# The whole screen tested about 410,000 compounds, of which about 5,000 (1.2%) were called active. Inconclusive means that the source gave no clear call. Such entries were picked first, then a sample of the others. Calls follow the shape of the dose curve; as a rule, active = well fitted inhibition curve with a large enough effect; inconclusive = small, poorly fitted or top-dose-only effect; inactive = no such curve, though single readings can be large or run the other way. Where the call is inconclusive, the potency comes from a doubtful curve fit.
# Test: qHTS for Inhibitors of TGF-b; also: nearly all actives have a fitted effect of over 65% in size
# Details: HepG2 CAGA-GFP TGF-b/SMAD3 reporter, GFP fluorescence, 18 h, TGF-beta stimulated, 500 pg/mL final; series mostly up to 46.1 µM
# Method in brief: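 Read-out: total well GFP (ex488/em500-530) summed from mean per-cell fluorescence. Cells: HEPG2 CAGA-GFP, 1% FBS DMEM, 18 h at 37 degrees C with 500 pg/mL final TGF-beta. Unstimulated wells served as the full-inhibition control; stimulated DMSO wells = 0%.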
# Potency is read from the fitted curve at half-maximal effect; tags tell the direction and shape of the fitted curve.
row,Compound,Potency
1,Cc1cn(CCOc2ccc(Cl)cc2)c(=O)[nH]c1=O,"inconclusive: 25.1 µM [inhibitor, single point]"
2,CN(CCOC(=O)c1ccco1)Cc1ccccc1,inactive
3,Cc1ccccc1-c1nnc(SCC(=O)N2CCCc3ccccc32)o1,"inconclusive: 2.82 µM [inhibitor, partial curve, poor fit]"
4,OCCCCNCc1cc(Br)ccc1OCc1ccccc1,inactive
5,O=Cc1cn(-c2ccccc2)nc1-c1ccccc1,"inconclusive: 35.5 µM [inhibitor, partial curve, poor fit]"
6,CN(/N=C/c1cc(Cl)cc(Cl)c1O)c1c(Cl)cccc1[N+](=O)[O-],"inconclusive: 35.5 µM [inhibitor, single point]"
7,Cc1ccc(N(C(=O)Cc2cccs2)C(C(=O)NC2CCCCC2)c2ccccn2)cc1C (centres undefined),"inconclusive: 35.5 µM [inhibitor, single point]"
8,Cc1ccc(N(Cc2ccccc2)C(=O)c2cc(S(=O)(=O)N3CCOCC3)ccc2Cl)cc1,"inconclusive: 25.1 µM [inhibitor, single point]"
9,CSc1ccc(Cl)c(C(=O)NC2CCCC2)c1,"inconclusive: 7.08 µM [inhibitor, partial curve, poor fit]"
10,Cn1c(COc2ccccc2)nnc1SCc1nc2ccccc2[nH]1,"inconclusive: 35.5 µM [inhibitor, single point]"
11,C=CCn1c(NCc2cc(Cl)ccc2O)nc2ccccc21,inactive
12,COC(=O)c1cc2ccccc2c(-c2c(OC)c(C(=O)OC)cc3ccccc23)c1OC,"inconclusive: 11.2 µM [inhibitor, single point]"
13,CN1N=C(C(C)(C)C)CSC1=Nc1ccccc1,inactive
14,Cc1cc2nc(-c3cccc(NC(=O)COc4ccc(C(C)C)cc4)c3)oc2cc1C,inactive
15,O=C(Nc1ccc2ccccc2c1)c1ccccc1Cl,inactive
16,CCCc1nn2c(=O)cc(CSCC(=O)Nc3nnc(C(C)C)s3)nc2s1,inactive
17,Cn1nc([N+](=O)[O-])c(C(C#N)c2ccccn2)c(Cl)c1=O (centres undefined),"inconclusive: 35.5 µM [inhibitor, single point]"
18,COc1ccc(C(=O)/C=C/Nc2ccc(S(=O)(=O)Nc3cccc(C(C)=O)c3)cc2)cc1,"inconclusive: 2.82 µM [inhibitor, single point]"
19,COc1ccc(-c2cc([C@H]3[C@@H]4C=CCC[C@@]4(C)C(=O)N3Cc3ccccc3)ccc2F)cc1OC,"inconclusive: 35.5 µM [inhibitor, single point]"
20,S=C(NCCCc1ccccc1)Nc1ccccc1Cl,"inconclusive: 35.5 µM [inhibitor, single point]"
21,CC(C)Nc1nnc(SC(C)C(=O)NCc2ccc3c(c2)OCO3)s1 (centres undefined),inactive
22,O=C(c1cccs1)n1cc(C(=S)N2CCOCC2)c2ccccc21,"inconclusive: 35.5 µM [inhibitor, single point]"
23,CC1CCCN(c2ccc3nc4ccccc4c(=O)n3n2)C1 (centres undefined),"inconclusive: 4.47 µM [inhibitor, partial curve, poor fit]"

row,Compound,Potency
1,COc1cccc(NC(=O)CSc2c(C)cnc3c2c(=O)n(C)c(=O)n3C)c1,inactive
2,O=C1N[C@@H](c2ccccc2)COC(=O)[C@@H](Cc2ccc(F)cc2)C/C=C\C[C@@H]1CC(=O)N(CCO)Cc1ccccc1,active: 12.6 µM
3,COC(=O)c1cc(OC)c(OC)cc1NC(=S)Nc1cc(Cl)ccc1OC,inactive
4,CCOc1ccc(S(=O)(=O)N(C(C)=O)c2ccc3oc(C)c(C(=O)OC)c3c2)cc1,"inconclusive: 17.8 µM [inhibitor, partial curve, poor fit]"
5,Cc1ccc[n+](CC(=O)Nc2cc(C(F)(F)F)ccc2N2CCOCC2)c1,"inconclusive: 35.5 µM [inhibitor, single point]"
6,COc1cccc(-c2nc(OC(C)C)c3ccccc3n2)c1,"inconclusive: 35.5 µM [inhibitor, single point]"
7,CC(C)C(=O)Nc1c(C(=O)N2CCN(c3ccccc3F)CC2)oc2ccccc12,inactive
8,Fc1ccc(C(c2nnc(-c3ccccc3)o2)N2CCN(c3ccccc3)CC2)c(Cl)c1 (centres undefined),"inconclusive: 4.47 µM [inhibitor, full curve, poor fit]"
9,Cc1cc(NS(=O)(=O)c2ccc(NC(=S)NC(=O)c3ccccc3)cc2)no1,inactive
10,CN(Cc1ccccc1)/[N+]([O-])=N/Oc1ccc([N+](=O)[O-])cc1[N+](=O)[O-],"inconclusive: 31.6 µM [inhibitor, single point]"
11,Cc1c(C(=O)Nc2cccc(N(C)S(C)(=O)=O)c2)cccc1[N+](=O)[O-],"inconclusive: 3.55 µM [inhibitor, single point]"
12,Cc1ccc(-c2nc3sc(CCNC(=O)c4ccco4)c(C)n3n2)cc1,"inconclusive: 8.91 µM [inhibitor, partial curve, poor fit]"
13,COc1ccccc1CNC(=O)CCCN1C(=O)CCn2nc(-c3cn(C)c4ccccc34)cc21,"inconclusive: 20 µM [inhibitor, partial curve, poor fit]"
14,O=C1C(Cc2ccccc2)Nc2ncnc(N3CCOCC3)c2N1Cc1ccc(Cl)cc1 (centres undefined),inactive
15,O=C(c1ccccc1)C(Nc1cccc([N+](=O)[O-])c1)c1ccccc1 (centres undefined),"inconclusive: 35.5 µM [inhibitor, single point]"
16,O=C(Nc1cccnc1)c1cnc2ccccc2n1,"inconclusive: 0.501 µM [inhibitor, full curve, poor fit]"
17,CCOc1cc(N2CCOCC2)c(OCC)cc1NC(=O)CN1CCSC1=O,inactive
18,CCOC(=O)c1ccc(NC(=O)C(=O)NCC2(c3ccc(OC)cc3)CCOCC2)cc1,inactive
19,CN(C)/C(CN1CCN(C=O)CC1)=C1\N=C(c2ccccc2)OC1=O,inactive
20,O=C(CN1CCN(S(=O)(=O)c2cccc(F)c2)CC1)Nc1ccnn1C1CCCC1,inactive
21,CCc1ccc(C(O)(c2ccccc2OC)C(CN2CCOCC2)c2ccccc2)cc1 (centres undefined),"inconclusive: 0.794 µM [inhibitor, full curve, poor fit]"
22,COC(=O)C(NC(=O)c1ccccc1Cl)(Nc1ncc(S(=O)(=O)c2ccc([N+](=O)[O-])cc2)s1)C(F)(F)F (centres undefined),"inconclusive: 14.1 µM [inhibitor, partial curve, poor fit]"
23,COc1ccc(-c2csc(NC(C)c3nc4cc(Cl)c(Cl)cc4n3CCCO)n2)cc1 (centres undefined),"inconclusive: 17.8 µM [inhibitor, partial curve, poor fit]"

row,Compound,Potency
1,C/C(=N\NC(=O)c1ccccc1F)c1ccccn1,"inconclusive: 15.8 µM [inhibitor, partial curve]"
2,Cc1ccccc1-c1nc(S(=O)(=O)c2ccc(Cl)cc2)c(NCCN2CCOCC2)o1,inactive
3,CC(C)CN1Cc2ccccc2Oc2cc(Br)ccc2S1(=O)=O,inactive
4,CCCn1c(N2CCN(Cc3ccc(Cl)cc3)CC2)nc2ccccc21,active: 15.8 µM
5,CCCNc1nc(OCC(F)(F)F)nc(OCC(F)(F)F)n1,"inconclusive: 0.112 µM [inhibitor, full curve, poor fit]"
6,Cc1csc(NC(=O)CSc2nnc(-c3ccoc3C)n2CCc2ccccc2)n1,"inconclusive: 11.2 µM [inhibitor, partial curve, poor fit]"
7,O=C(CN1CCc2ccccc2C1)Nc1ccccc1C(F)(F)F,inactive
8,COc1ccc(C(=O)On2c(-c3ccc(Br)cc3)nc3ccccc3c2=O)cc1,active: 12.6 µM
9,CC(=O)c1cccc(CN2CCC(CO)(CCOc3ccccc3)CC2)c1,inactive
10,CCOC(=O)c1c(C)nc2c(c1-c1ccc(OC)c(OC)c1)C(=O)c1ccccc1-2,"inconclusive: 35.5 µM [inhibitor, single point]"
11,Cc1onc(-c2c(Cl)cccc2Cl)c1C(=O)N1CCCc2ccccc21,"inconclusive: 35.5 µM [inhibitor, single point]"
12,O=C(CSc1cc(Cl)ccc1Cl)NC1CCCc2ccccc21 (centres undefined),inactive
13,Cc1cccc(CNc2ncnc3ccc(-c4ccc5c(c4)OCCO5)cc23)c1,"inconclusive: 35.5 µM [inhibitor, single point]"
14,CC(C)(C)OC(=O)C[C@H]1C/C=C\C[C@@H](CC(=O)N(CCO)Cc2ccccc2)C(=O)N2CCC[C@H]2COC1=O,"inconclusive: 2.82 µM [inhibitor, single point]"
15,O=C(Nc1ccc(N2CCCCC2)c(Cl)c1)c1ccc(N2CCOCC2)c([N+](=O)[O-])c1,"inconclusive: 17.8 µM [inhibitor, single point]"
16,CC1CCCCN1S(=O)(=O)c1ccc(C(=O)Nc2nnc(-c3ccco3)o2)cc1 (centres undefined),"inconclusive: 17.8 µM [inhibitor, single point]"
17,CN(C(=O)c1cccc(NC(=O)Cc2ccc(NC(=O)C3CCCN(C(=O)CCc4ccccc4)C3)cc2)c1)C1CCCCC1 (centres undefined),"inconclusive: 7.08 µM [inhibitor, full curve, poor fit]"
18,Cc1ccc(C(=O)NCC(=O)N2CCCN(C)CC2)cc1C,inactive
19,Cc1cccc2cc(CN(Cc3cccs3)S(=O)(=O)c3ccc4c(c3)OCCO4)c(=O)[nH]c12,inactive
20,CC(C)c1ccc(S(=O)(=O)N(C)C2(C)CCS(=O)(=O)C2)cc1 (centres undefined),"inconclusive: 31.6 µM [inhibitor, single point]"
21,O=C(OCCN1CCCCC1)c1ccc(Cl)cc1,"inconclusive: 5.62 µM [inhibitor, single point]"
22,CCC(C(=O)NCCN1CCOCC1)n1c2ccccc2c2nc(=O)cc(C)n21 (centres undefined),inactive
23,O=[N+]([O-])c1ccc(Sc2cccc3cccnc23)c([N+](=O)[O-])c1,active: 3.98 µM
